# According to the supplement of paper PMC10037445:
# Whole data set: some 2,900 compounds, median “IRF Lucia reporter activity, fold change vs agonist alone” near 0.9, cut for the highest 2% near 2.8. Some of the results follow.
# Legend:
# RAW-Dual [1] = assay: IRF Lucia reporter activity, fold change vs agonist alone; cytotoxicity flag (confluency mask): cytotoxic (confluency <70% of control); higher = enhanced IRF activity
# Outline: (§1)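 RAW-Dual macrophages (50,000 cells/well in DMEM, 384-well plates) received 50 nL of library stock by pin tool, then a PRR agonist 1 h later, and were kept at 37 °C, 5% CO2. After 20 hours, supernatant was read for IRF by QuantiLuc luminescence and for NF-κB by QuantiBlue absorbance at 620 nm. Reporter activity is fold change over agonist-alone wells. Cytotoxic wells had IncuCyte confluency below 70% of agonist controls in both mask sets.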
# RAW-Dual [2] = assay: IRF Lucia reporter activity, fold change vs agonist alone; higher = enhanced IRF activity; settings: library stock concentration (final ~1000-fold dilution): 10 mM, agonist: MPLA (TLR4) […]
# Outline: as §1
# RAW-Dual [3] = assay: IRF Lucia reporter activity, fold change vs agonist alone; cytotoxicity flag (confluency mask): not cytotoxic; higher = enhanced IRF activity
# Outline: as §1
# [4] = agonist: 3'3'-cGAMP (STING) 10 ug/mL
# [5] = cytotoxicity flag (confluency mask): cytotoxic (confluency <70% of control)
# [6] = cytotoxicity flag (confluency mask): not cytotoxic
structure (smiles),measurement,setting,value
COc1cc2nc(N3CCCC3)nc(NCCCCCN3CCCC3)c2cc1OC (library stock concentration (final ~1000-fold dilution): 10 mM),IRF Lucia reporter activity,RAW-Dual [1]; [4],0.313
same,IRF Lucia reporter activity,RAW-Dual [1]; agonist: LPS (TLR4) 0.1 ug/mL,2.54
COc1cc2nc(N3CCCC3)nc(NCCCCCN3CCCC3)c2cc1OC,IRF Lucia reporter activity,RAW-Dual [2]; [5],0.8
COc1cc2nc(N(C)CCCNC(=O)C3CCCO3)nc(N)c2cc1OC.Cl (stereo unspecified),IRF Lucia reporter activity,RAW-Dual [2]; [6],0.985
COc1cc2nc(N(C)CCCNC(=O)C3CCCO3)nc(N)c2cc1OC.Cl (stereo unspecified) (library stock concentration (final ~1000-fold dilution): 10 mM),IRF Lucia reporter activity,RAW-Dual [3]; [4],0.64
same,IRF Lucia reporter activity,RAW-Dual [3]; agonist: LPS (TLR4) 0.1 ug/mL,0.963
Nc1nc(N)c(N=O)c(OCC2CCCCC2)n1 (library stock concentration (final ~1000-fold dilution): 10 mM),IRF Lucia reporter activity,RAW-Dual [3]; [4],0.368
same,IRF Lucia reporter activity,RAW-Dual [3]; agonist: LPS (TLR4) 0.1 ug/mL,0.667
Nc1nc(N)c(N=O)c(OCC2CCCCC2)n1,IRF Lucia reporter activity,RAW-Dual [2]; [6],0.796
Cn1cnc2c(F)c(Nc3ccc(Br)cc3F)c(C(=O)NOCCO)cc21,IRF Lucia reporter activity,RAW-Dual [2]; [6],2.67
Cn1cnc2c(F)c(Nc3ccc(Br)cc3F)c(C(=O)NOCCO)cc21 (library stock concentration (final ~1000-fold dilution): 10 mM),IRF Lucia reporter activity,RAW-Dual [3]; [4],0.728
same,IRF Lucia reporter activity,RAW-Dual [3]; agonist: LPS (TLR4) 0.1 ug/mL,2.67
CC(Nc1ncnc2[nH]cnc12)c1cc2cccc(Cl)c2c(=O)n1-c1ccccc1 (stereo unspecified),IRF Lucia reporter activity,RAW-Dual [2]; [6],1.42
CC(Nc1ncnc2[nH]cnc12)c1cc2cccc(Cl)c2c(=O)n1-c1ccccc1 (stereo unspecified) (library stock concentration (final ~1000-fold dilution): 10 mM),IRF Lucia reporter activity,RAW-Dual [3]; [4],0.659
same,IRF Lucia reporter activity,RAW-Dual [3]; agonist: LPS (TLR4) 0.1 ug/mL,0.799
COc1cc(C(=O)O)ccc1O (library stock concentration (final ~1000-fold dilution): 10 mM),IRF Lucia reporter activity,RAW-Dual [3]; [4],1.13
same,IRF Lucia reporter activity,RAW-Dual [3]; agonist: LPS (TLR4) 0.1 ug/mL,1.35
CCCCCCCCCCCCCCCCn1cc[n+](Cc2ccccc2)c1C,IRF Lucia reporter activity,RAW-Dual [2]; [6],0.351
CCCCCCCCCCCCCCCCn1cc[n+](Cc2ccccc2)c1C (library stock concentration (final ~1000-fold dilution): 10 mM),IRF Lucia reporter activity,RAW-Dual [3]; [4],0.0559
same,IRF Lucia reporter activity,RAW-Dual [3]; agonist: LPS (TLR4) 0.1 ug/mL,0.246
O=C(CCNNC(=O)c1ccncc1)NCc1ccccc1 (library stock concentration (final ~1000-fold dilution): 10 mM),IRF Lucia reporter activity,RAW-Dual [3]; [4],1.04
same,IRF Lucia reporter activity,RAW-Dual [3]; agonist: LPS (TLR4) 0.1 ug/mL,1.16
O=C(CCNNC(=O)c1ccncc1)NCc1ccccc1,IRF Lucia reporter activity,RAW-Dual [2]; [6],1.02
Cc1cnc(-c2ccccc2C(C)C)nc1NCc1ccc(-n2ccnn2)cc1,IRF Lucia reporter activity,RAW-Dual [2]; [6],0.691
Cc1cnc(-c2ccccc2C(C)C)nc1NCc1ccc(-n2ccnn2)cc1 (library stock concentration (final ~1000-fold dilution): 10 mM),IRF Lucia reporter activity,RAW-Dual [3]; [4],0.223
same,IRF Lucia reporter activity,RAW-Dual [3]; agonist: LPS (TLR4) 0.1 ug/mL,0.691
Nc1ccc(-c2ccc3ncc4ccc(=O)n(-c5cccc(C(F)(F)F)c5)c4c3c2)cn1 (library stock concentration (final ~1000-fold dilution): 10 mM),IRF Lucia reporter activity,RAW-Dual [1]; [4],0.0925
same,IRF Lucia reporter activity,RAW-Dual [1]; agonist: LPS (TLR4) 0.1 ug/mL,1.65
Nc1ccc(-c2ccc3ncc4ccc(=O)n(-c5cccc(C(F)(F)F)c5)c4c3c2)cn1,IRF Lucia reporter activity,RAW-Dual [2]; [5],2.11
COC(=O)C(CCSC)NC(=O)c1ccc(NCC(N)CS)cc1-c1ccccc1.Cl (stereo unspecified) (library stock concentration (final ~1000-fold dilution): 10 mM),IRF Lucia reporter activity,RAW-Dual [3]; [4],0.149
same,IRF Lucia reporter activity,RAW-Dual [3]; agonist: LPS (TLR4) 0.1 ug/mL,0.817
COC(=O)C(CCSC)NC(=O)c1ccc(NCC(N)CS)cc1-c1ccccc1.Cl (stereo unspecified),IRF Lucia reporter activity,RAW-Dual [2]; [6],0.862
O=c1n(CCCN2CCN(c3cccc(Cl)c3)CC2)nc2ccccn12,IRF Lucia reporter activity,RAW-Dual [2]; [6],1.15
O=c1n(CCCN2CCN(c3cccc(Cl)c3)CC2)nc2ccccn12 (library stock concentration (final ~1000-fold dilution): 10 mM),IRF Lucia reporter activity,RAW-Dual [3]; [4],0.739
same,IRF Lucia reporter activity,RAW-Dual [3]; agonist: LPS (TLR4) 0.1 ug/mL,1.13
Cc1ccccc1C(C(=O)NC1CCCCC1)N(C(=O)Cn1ccnc1C)c1cccc(F)c1 (stereo unspecified) (library stock concentration (final ~1000-fold dilution): 10 mM),IRF Lucia reporter activity,RAW-Dual [3]; [4],0.428
same,IRF Lucia reporter activity,RAW-Dual [3]; agonist: LPS (TLR4) 0.1 ug/mL,0.74
Cc1ccccc1C(C(=O)NC1CCCCC1)N(C(=O)Cn1ccnc1C)c1cccc(F)c1 (stereo unspecified),IRF Lucia reporter activity,RAW-Dual [2]; [6],1.05
CC(C)CN(CC(O)C(Cc1ccccc1)NC(=O)OC1CCOC1)S(=O)(=O)c1ccc(N)cc1 (stereo unspecified),IRF Lucia reporter activity,RAW-Dual [2]; [6],1.08
CC(C)CN(CC(O)C(Cc1ccccc1)NC(=O)OC1CCOC1)S(=O)(=O)c1ccc(N)cc1 (stereo unspecified) (library stock concentration (final ~1000-fold dilution): 10 mM),IRF Lucia reporter activity,RAW-Dual [3]; [4],1.05
same,IRF Lucia reporter activity,RAW-Dual [3]; agonist: LPS (TLR4) 0.1 ug/mL,0.93
